Reference: PubChem BioAssay AID624296 (National Center for Advancing Translational Sciences (NCATS), 2012)
In all, about 350,000 compounds went through this assay and about 9,900 (2.8%) were called active. Inconclusive means that the source gave no clear call. Such entries were picked first, then a sample of the others. The call rests on the fitted dose curve; in most records, active means well fitted activation curve with a large enough effect; inconclusive means small, poorly fitted or top-dose-only effect; inactive means no such curve, though single readings can be large or run the other way. No potency is given beside an inconclusive call; the fits are too rough.

Assay: A quantitative high throughput screen for small molecules that induce DNA re-replication in MCF 10a normal breast cells. Further: nearly all actives have a fitted effect of over 50% in size.
Conditions: MCF 10A DNA re-replication, Hoechst nuclear intensity, 48 h; series mostly up to 46.1 µM
Potency means the concentration at half of the fitted maximal effect; tags describe the fitted curve by direction and shape.

SMILES | Potency
O=C1NC(c2cccc(Br)c2)=N/C1=C\c1ccco1 | inconclusive [activator, single point]
CCOc1cc(/C=C(\C#N)C(=O)Nc2cccc(C(=O)O)c2)ccc1OCc1ccccc1Cl | inconclusive [activator, single point]
COc1ccc([C@H]2Oc3cc(O)cc(O)c3C(=O)C2[C@@H]2C(=O)c3c(O)cc(O)cc3O[C@@H]2c2ccc(OC)cc2)cc1 (stereo partly specified) | inconclusive [activator, full curve, poor fit]
CCCCNc1ccc(C(F)(F)F)cc1S(=O)(=O)NCCc1ccc(F)cc1 | inconclusive [activator, single point]
Cc1cc(NC(=O)c2coc(=O)c(Br)c2)ccc1C(C)C | inconclusive [activator, single point]
Cc1cccc(-n2c(C)cc(C(=O)NC3CCCCC3)c2C)c1 | inconclusive [activator, single point]
COc1cccc(COC(=O)C2CCN(S(=O)(=O)c3ccc(C)cc3C)CC2)c1OC | inactive
COc1ccccc1OCCOc1ccc(/C=C2\C(=N)N3N=C(C)SC3=NC2=O)cc1 | inconclusive [activator, single point]
CC(OC(=O)CNC(=O)c1cccs1)C(=O)Nc1ccc(S(N)(=O)=O)cc1 (stereo unspecified) | inactive
N#Cc1cccc(C#N)c1N1CCC(C#N)CC1 | inactive
Cn1c(=O)nc2n(Cc3ccccc3)c3ccccc3cc-2c1=O | inconclusive [activator, single point]
O=C(NCc1ccc(F)cc1)c1ccccc1OCc1ccccc1 | inconclusive [activator, partial curve]
CCCCCc1c2c(cc(O)c1C(=O)O)OC(=O)c1c(cc(OC)cc1C(=O)CCCC)O2 | inconclusive [activator, single point]
COc1ccccc1NC(=O)NCCN1CCN(c2cccc(Cl)c2)CC1 | inactive
O=C(O)/C=C/C(=O)Nc1ccc(-n2nccc2C(F)(F)F)cc1 | inconclusive [activator, single point]
CCN(CC)S(=O)(=O)c1ccc(/C=C/C(=O)OCC(=O)NCc2ccco2)cc1 | inconclusive [activator, single point]
Cc1cccn2cc(CSc3nnc(Nc4ccc(C(C)C)cc4)s3)nc12 | inactive
COc1ccccc1C(=O)OCC(=O)NC(C)CCc1ccccc1 (stereo unspecified) | inconclusive [activator, single point]
Cc1ccc(CNS(=O)(=O)c2cc3c(cc2C)NC(=O)CO3)cc1 | inactive
Cc1ccc(NC(=O)CN2C(=O)NC(Cc3c[nH]c4ccccc34)C2=O)cc1S(=O)(=O)N1CCCCC1 (stereo unspecified) | inconclusive [activator, partial curve, poor fit]
Cc1cncn1CCc1nc2c3ccccc3nc(SCC(=O)Nc3cccc(Cl)c3)n2n1 | inconclusive [activator, single point]

SMILES | Potency
CC(Oc1ccc(Br)cc1Cl)C(=O)Nc1ccncc1 (stereo unspecified) | inconclusive [activator, single point]
COc1ccc(C2=Nn3c(nnc3-c3ccccc3OC)SC2)cc1OC | active: 0.366 µM
CCOC(=O)C1CCCN(S(=O)(=O)Cc2ccccc2)C1 (stereo unspecified) | inactive
Cc1ccc(S(=O)(=O)NC2CCCC2)cc1C | inactive
CCC(c1nnnn1Cc1ccccc1)N(Cc1ccco1)Cc1cc2cc(OC)ccc2[nH]c1=O (stereo unspecified) | inconclusive [activator, single point]
Cc1ccc(-n2c(=O)c3cc4c(=O)n(-c5ccc(C)c(C)c5)c(=O)c4c(C(=O)c4ccc(C(=O)O)cc4)c3c2=O)cc1C | inconclusive [activator, partial curve, poor fit]
CC(C)NC(=O)N(C)C[C@H]1Oc2ccc(NC(=O)CCN3CCOCC3)cc2C(=O)N([C@H](C)CO)C[C@@H]1C | inconclusive [activator, full curve, poor fit]
N#CCn1cc(/C=N/NC(=O)c2cc3c(ccc4ccccc43)o2)c2ccccc21 | inconclusive [activator, partial curve]
CCOc1cc2c(cc1O)C(=NOC)CC1C2CCC2(C)C(O)CCC12 (stereo unspecified) | active: 2.06 µM
O=[N+]([O-])c1ccc(N/N=C/c2c[nH]c3ccccc23)c(S(=O)(=O)Nc2ccc(Cl)cc2)c1 | inconclusive [activator, partial curve, poor fit]
O=C(O)c1cc(-c2ccc3ccccc3c2)nc2ccc(F)cc12 | inconclusive [activator, single point]
N#C/C(=C\c1coc2ccc(O)cc2c1=O)C(=O)Nc1nc2ccccc2s1 | inconclusive [activator, full curve, poor fit]
COc1ccc([C@@H]2C[C@@H](c3ccccc3)Oc3cc(OC)c(OC)c(OC)c32)cc1 | active: 1.16 µM
CCOC(=O)/C=C/c1ccc(C(F)(F)F)cc1S(=O)(=O)NC(C)(C)C | inconclusive [activator, single point]
O=C(NC1CCS(=O)(=O)C1)c1ccc(-c2ccc(Br)cc2)o1 (stereo unspecified) | inconclusive [activator, full curve, poor fit]
CC1Cc2cc(/C(O)=C3/C(=O)C(=O)N(CCCn4ccnc4)C3c3cccnc3)ccc2O1 (stereo unspecified) | inconclusive [activator, single point]
CCCCCCCCCC(=O)OCC(O)CO (stereo unspecified) | inconclusive [activator, single point]
O=C(O)C1C2CCC(O2)C1C(=O)Nc1ccc(F)cc1 (stereo unspecified) | inconclusive [activator, single point]
C=CCc1cccc2cc(C(=O)N3CCN(C(=O)c4ccco4)CC3)c(=O)oc12 | active: 13 µM
Cc1ccccc1-c1nc(-c2ccc(NC(=O)c3ccc4c(c3)OCO4)cc2)no1 | inconclusive [activator, partial curve]
